{
  "source": "PubChem BioAssay AID651820",
  "about": "(National Center for Advancing Translational Sciences (NCATS), 2012)",
  "note": "The whole screen tested about 340,000 compounds, of which about 12,000 (3.5%) were called active. This list was built around the results that the source calls inconclusive (neither active nor inactive); the mix of calls is not that of the screen. Calls come from the whole dose curve; as a rule, active = well fitted inhibition curve with a large enough effect; inconclusive = small, poorly fitted or top-dose-only effect, or another doubt; inactive = no such curve, though single readings can be large or run the other way. No potency is given beside an inconclusive call; the fits are too rough.",
  "data": [
    {"assay": "qHTS Assay for Inhibitors of Hepatitis C Virus (HCV); note: potency is the fitted concentration of half-maximal effect; tags give direction and shape of the fitted curve; for activity change, negative = inhibition: % is set by controls: 0 for no effect and ±100 for the full control effect", "settings": "Huh7.5.1 HCVcc-Cre (HCVcc is cell-culture hepatitis C virus) infection, luciferase reporter, 44 h; activity change, negative = inhibition: at 41.8 µM (top of the series)", "method_in_brief": "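After 44 h co-culture of compound, cells and HCVcc-Cre (~0.5 moi), substrate is added for 15 min at room temperature and luciferase measured over 15 sec. Cells were seeded at 1,000/well and pre-cultured 4 h.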", "values": [
      {"molecule": "CCCn1c(SC(C)C(=O)O)nc2ccccc21", "note": "(configuration not stated)", "activity change, negative = inhibition": "inactive: -1.99%"},
      {"molecule": "CN1CCN(C(=O)C2CC(=O)N(c3ccc(F)c(Cl)c3)C2)CC1", "note": "(configuration not stated)", "activity change, negative = inhibition": "inactive: 9.44%"},
      {"molecule": "CCc1nnc(NC(=O)c2ccc(S(=O)(=O)N3CCCc4ccccc43)cc2)o1", "Potency": "inconclusive [inhibitor, partial curve]"},
      {"molecule": "O=C(c1cccs1)N1CCC2(O)CCCCC2C1c1ccc(F)cc1", "note": "(configuration not stated)", "activity change, negative = inhibition": "inactive: 6.96%"},
      {"molecule": "CC1(C)S[C@@H]2[C@H](NC(=O)[C@H](N)c3ccc(O)cc3)C(=O)N2[C@H]1C(=O)O", "Potency": "inconclusive [inhibitor, single point]"},
      {"molecule": "CNC(=O)C1=C(C)NC(=S)NC1c1cccs1", "note": "(configuration not stated)", "Potency": "inconclusive [inhibitor, single point]"},
      {"molecule": "CC(C)CC1(C)NC(=O)N(Cc2cc([N+](=O)[O-])cc3c2OCOC3)C1=O", "note": "(configuration not stated)", "activity change, negative = inhibition": "inactive: -29.8%"},
      {"molecule": "Cc1cc(NC(=O)c2c(Cl)cccc2Cl)no1", "activity change, negative = inhibition": "inactive: 6.42%"},
      {"molecule": "N#Cc1ccccc1S(=O)(=O)N1CCN(C(=O)C2CCCC2)CC1", "Potency": "inconclusive [inhibitor, single point]"},
      {"molecule": "COc1ccc(C=CC(=O)c2cc(O)ccc2O)cc1", "activity change, negative = inhibition": "inconclusive: -33.1% [inhibitor]"},
      {"molecule": "CC(C)(C)c1cc(C(=O)N/N=C/c2ccc([N+](=O)[O-])s2)n[nH]1", "Potency": "active: 25.1 µM"},
      {"molecule": "COc1ccccc1NC(=O)c1cc2c(CO)cnc(C)c2oc1=Nc1cccc(C(N)=O)c1", "Potency": "inconclusive [inhibitor, partial curve, poor fit]"},
      {"molecule": "CCCC(=O)Nc1ccc(NC(=O)c2cc3ccccc3o2)c(OC)c1", "Potency": "inconclusive [inhibitor, full curve, poor fit]"},
      {"molecule": "c1ccc(-c2nc(-c3cccnc3)cs2)cc1", "Potency": "inconclusive [inhibitor, single point]"},
      {"molecule": "Cc1ccc(NC(=O)Cn2c(=O)cnc3ccccc32)cc1S(=O)(=O)N(C)C", "Potency": "inconclusive [inhibitor, single point]"},
      {"molecule": "CC1Cc2ccccc2N1C(=O)C1CCCN1S(=O)(=O)c1ccc(Cl)cc1", "note": "(configuration not stated)", "Potency": "inconclusive [inhibitor, single point]"},
      {"molecule": "CCOC(=O)C1=C(COC(=O)C2(C)CC2(Cl)Cl)NC(=O)NC1c1ccc(OC)cc1", "note": "(configuration not stated)", "Potency": "inconclusive [inhibitor, partial curve]"},
      {"molecule": "COC(=O)c1ccc(COc2ccccc2/C=C(\\C#N)C(=O)Nc2c(C)cccc2C)cc1", "Potency": "inconclusive [inhibitor, full curve, poor fit]"},
      {"molecule": "CCOC(=O)c1ccccc1NC(=O)CSc1nc2ccccc2n1CC(=O)N1CCCC1", "Potency": "inconclusive [inhibitor, single point]"},
      {"molecule": "Cc1cc(OCc2cc(C(=O)N(C)CC3CCOCC3)no2)cc(C)c1Cl", "Potency": "inconclusive [inhibitor, single point]"},
      {"molecule": "Cc1ccccc1/C=C/c1nc2ccccc2c(=O)n1CCc1ccccc1", "Potency": "inconclusive [inhibitor, single point]"},
      {"molecule": "CC(C)c1nc2oc3c(NCC4CCCO4)ncnc3c2c2c1COC(C)(C)C2", "note": "(configuration not stated)", "Potency": "inconclusive [inhibitor, single point]"},
      {"molecule": "CCOC(=O)N/N=C\\c1ccccc1OC/C=C/c1ccccc1", "Potency": "inconclusive [inhibitor, single point]"},
      {"molecule": "Cc1cc(C)c(O)c(-c2cc(C(=O)NCc3ccccc3)[nH]n2)c1", "Potency": "inconclusive [inhibitor, single point]"},
      {"molecule": "CC(C)(C)c1cc(NC(=O)CSc2nnc(N)s2)n(-c2ccccc2)n1", "Potency": "inconclusive [inhibitor, single point]"},
      {"molecule": "CCOc1ccc(N(CC(=O)Nc2ccc3c(c2)OCCO3)S(=O)(=O)c2c(C)noc2C)cc1", "activity change, negative = inhibition": "inactive: -11.8%"},
      {"molecule": "CC(=O)NC(CC(=O)Nc1ccc(S(=O)(=O)NC2=NCCCCC2)cc1)c1ccccc1", "note": "(configuration not stated)", "Potency": "inconclusive [inhibitor, single point]"},
      {"molecule": "CC(=O)C[C@@H](O)CC(=O)[C@@H]1OC(=O)[C@@H](C)C/C=C\\Cc2ccccc21", "activity change, negative = inhibition": "inactive: 14.3%"},
      {"molecule": "C=C(C)C1CC=C(C)/C(=N\\NC(=S)Nc2ccc(C)cc2)C1", "note": "(configuration not stated)", "Potency": "inconclusive [inhibitor, partial curve]"},
      {"molecule": "CN(Cc1ccccc1N1CCCC1)C(=O)c1cc2cc(Cl)ccc2o1", "Potency": "active: 11.2 µM"},
      {"molecule": "Nc1nnc(C(F)(F)F)s1", "activity change, negative = inhibition": "inactive: 11.8%"},
      {"molecule": "CN(C)c1ccc(NC(=O)Nc2cccc(Cl)c2)cc1", "Potency": "inconclusive [inhibitor, partial curve]"},
      {"molecule": "O=[N+]([O-])c1ccc(COc2cccc(CN3CCOCC3)c2)cc1", "Potency": "inconclusive [inhibitor, partial curve]"},
      {"molecule": "Cc1nc2scc(C)n2c(=O)c1S(=O)(=O)NCC1CCN(Cc2ccc(Cl)cc2)CC1", "Potency": "inconclusive [inhibitor, single point]"},
      {"molecule": "O=C(CS(=O)(=O)c1ccc(F)cc1)NCCS(=O)(=O)c1ccccc1", "Potency": "inconclusive [inhibitor, single point]"},
      {"molecule": "Cc1cc2cc(C)c3nnc(SCC(=O)Nc4ccc(S(=O)(=O)N5CCCCC5)cc4)n3c2cc1C", "Potency": "inconclusive [inhibitor, single point]"},
      {"molecule": "CC(=O)c1c(N2CCN(c3ccc(F)cc3)CC2)nc(=S)n(Cc2ccccc2)c1C", "Potency": "inconclusive [inhibitor, single point]"},
      {"molecule": "COc1ccccc1C(=O)N/C(=C\\c1ccc(Br)cc1)C(=O)N1CCCC1", "activity change, negative = inhibition": "inactive: -27.5%"},
      {"molecule": "COc1cc(/C=C/CN2CCC(Oc3ccc(C(=O)N4CCCC4)cc3)CC2)ccc1O", "Potency": "inconclusive [inhibitor, single point]"},
      {"molecule": "CCOc1ccc(NC(=S)NCCN2CCN(Cc3ccccc3)CC2)cc1", "Potency": "inconclusive [inhibitor, single point]"},
      {"molecule": "O=CN1CCN(C(=O)c2ccc(-c3nc4ccccc4s3)s2)CC1", "Potency": "inconclusive [inhibitor, partial curve]"},
      {"molecule": "O=C(OC(c1ccccc1)c1nccc2ccccc12)c1cc([N+](=O)[O-])cc([N+](=O)[O-])c1", "note": "(configuration not stated)", "Potency": "inconclusive [inhibitor, partial curve]"}
    ]}
  ]
}
